# Hit rate of the full screen: of about 410,000 compounds, about 7,200 (1.8%) were called active. Inconclusive results, whose numbers are uncertain, are shown with a selection of clear calls. The call rests on the fitted dose curve; in most records, active means well fitted activation curve with a large enough effect; inconclusive means small, poorly fitted or top-dose-only effect, or another doubt; inactive means no such curve, though single readings can be large or run the other way. No potency is given beside an inconclusive call; the fits are too rough.
# Assay: qHTS of TDP-43 Inhibitors; further: nearly all actives have a fitted effect of over 50% in size
# Conditions: TDP-43 expressing yeast growth rescue, BacTiter-Glo, 24 h; series mostly up to 46.1 µM
# Summary of the method: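 Growth rescue of TDP-43-toxic yeast measured as ATP luminescence (BacTiter-Glo). Cells grown to mid-log in raffinose, induced in galactose at OD600=0.02, exposed to compound 24 hr at 30 deg C.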
# Potency means the concentration at half of the fitted maximal effect; tags describe the fitted curve by direction and shape.
row,Compound,Potency
1,O=c1[nH]c(-c2cccs2)nc2ccccc12,"inconclusive [activator, partial curve]"
2,O=C1CC(c2cccc(Cl)c2)CC(O)=C1C=NC1CCCC1 (stereo unspecified),"inconclusive [activator, partial curve]"
3,COc1ccccc1N(C(=O)CNC(=O)c1ccco1)C(C(=O)NC1CCCC1)c1ccco1 (stereo unspecified),inactive
4,CCCOc1ccc(OCCOCCNCc2ccccc2)cc1,"inconclusive [activator, full curve]"
5,Clc1cccc(C2=NOC(c3nnc(-c4ccccc4)o3)C2)c1 (stereo unspecified),"inconclusive [activator, single point]"
6,CC(C)NC(=S)NC(=O)c1ccc(-c2ccccc2)cc1,active: 17.8 µM
7,CN(CC(=O)NCCCN1CCOCC1)S(=O)(=O)c1ccc(Cl)cc1,inactive
8,COc1cc(NC(=O)CSc2nc(=O)n(CCN3CCOCC3)c3c2CCC3)cc(OC)c1,inactive
9,O=C(NNC(=O)c1csc(-c2cnccc2C(F)(F)F)n1)c1ccc(C(F)(F)F)cc1,inactive
10,CCOc1ccc(C(=O)O/N=C(\N)c2ccccn2)cc1,active: 12.6 µM
11,CCCCNC(=O)C1CCC(CNS(=O)(=O)c2ccc(NC(C)=O)cc2)CC1 (stereo unspecified),"inconclusive [activator, partial curve]"
12,CC(C(Sc1ccccc1N)c1ccccc1)[N+](=O)[O-] (stereo unspecified),"inconclusive [activator, partial curve]"
13,O=C(NCc1ccccc1)c1ccc(-c2ccccc2C(F)(F)F)o1,"inconclusive [activator, single point]"
14,COc1ccc(CC(=O)Nc2ccc3c(c2)C(=O)N(CCC(=O)O)C3=O)cc1,"inconclusive [activator, partial curve, poor fit]"
15,Fc1cccc(Cl)c1/C=N/Nc1ccccn1,"inconclusive [activator, partial curve]"
16,COc1cc2ccccc2cc1C(=O)N1CCN(c2nc3ccc(F)cc3s2)CC1,active: 12.6 µM
17,CCC(C)NC(=O)c1cc2c(=O)n3cccc(C)c3nc2s1 (stereo unspecified),"inconclusive [activator, single point]"
18,Nc1nc2c(s1)COc1ccccc1-2,inactive
19,CCCc1nc2c3ccccc3ccn2c1Cc1ccccc1C(F)(F)F,inactive
20,COC(=O)c1cc(C(=O)N2CCN(c3cccc(Cl)c3)CC2)cc([N+](=O)[O-])c1,"inconclusive [activator, single point]"
21,COc1ccc([C@H]2CC(=O)C=C(c3cccc(C(F)(F)F)c3)C2)cc1,"inconclusive [activator, single point]"
22,O=C(CN1CCCc2ccccc21)NCCc1ccc(F)cc1,"inconclusive [activator, partial curve]"
23,Cc1nc(-c2ccc(F)cc2)c(CC(=O)N(C)CC(=O)Nc2ccc(Cl)c(C(F)(F)F)c2)s1,"inconclusive [activator, full curve]"

row,Compound,Potency
1,COc1ccc(C)cc1NC(=O)CSCc1ccccc1C,active: 12.6 µM
2,COc1ccc(N2C(=O)CC(Sc3n[nH]c(-c4cccc(C)c4)n3)C2=O)cc1 (stereo unspecified),"inconclusive [activator, full curve]"
3,CCOC(=O)c1cc(-c2ccc(F)cc2)n(CCC(=O)NCCc2ccc(C)cc2)c1C,inactive
4,CC(=O)N1N=C(c2ccccc2)CC1c1cccc([N+](=O)[O-])c1 (stereo unspecified),active: 12.6 µM
5,Fc1ccc(/C=N/Nc2ncnc3nc[nH]c23)cc1F,"inconclusive [activator, full curve, poor fit]"
6,CCC(=O)OC1(C)C(=O)C=C2C=C(C3CC3)OC=C2C1=O (stereo unspecified),"inconclusive [activator, partial curve]"
7,CN(C(=O)c1cc2c(s1)-c1ccc(Cl)cc1SC2)c1cccc(C(F)(F)F)c1,inactive
8,Cc1cc(C)nc(N2N=C(C(F)(F)F)CC2=O)n1,"inconclusive [activator, single point]"
9,CC(C)(C)C(=O)NC(=S)NCCc1ccccc1,"inconclusive [activator, single point]"
10,N#Cc1cccc(C(=O)C(=O)N2CCN(c3ccccc3)CC2)c1,"inconclusive [activator, partial curve]"
11,O=C(c1cc(COc2ccc(F)cc2Cl)on1)N1CCSCC1,"inconclusive [activator, partial curve]"
12,O=C1c2ccccc2C(=O)N1CCOc1ccc(F)cc1,"inconclusive [activator, single point]"
13,O=C(Nc1cc(Cl)cc(Cl)c1)c1ccno1,"inconclusive [activator, single point]"
14,Cc1c(C(=O)N2CCN(C(=O)c3ccco3)CC2)oc2c(Cl)cccc12,"inconclusive [activator, single point]"
15,Cc1ccc(N2CCN(S(=O)(=O)c3ccc(F)c(C(=O)Nc4ccc(Cl)cc4Cl)c3)CC2C)cc1 (stereo unspecified),inactive
16,CCOC(=O)C(NCCc1ccccc1F)(NC(=O)CC)C(F)(F)F (stereo unspecified),"inconclusive [activator, single point]"
17,Cc1cc2c(cc3c(SCc4nc(-c5ccccc5)oc4C)nnc(C)n32)o1,active: 17.8 µM
18,CCCCC(=O)Nc1nc2ccc3nc(C)sc3c2s1,"inconclusive [activator, partial curve]"
19,CC(=O)N(C)c1cc([N+](=O)[O-])ccc1OCc1ccccc1,"inconclusive [activator, partial curve]"
20,CCc1cccc(C)c1NC(=S)NCC1CCN(c2ccc(OC)cc2)C1 (stereo unspecified),"inconclusive [activator, single point]"
21,CCC(=O)c1ccc(N2CCN(C(=O)c3ccc(F)cc3)CC2)c(F)c1,"inconclusive [activator, partial curve]"
22,Cc1ccc(S(=O)(=O)NCCc2cn3ccsc3n2)cc1,inactive
23,COc1ccc(/C=C(\C#N)C(=O)Nc2cccc3ncccc23)cc1OC,"inconclusive [activator, partial curve]"

# Reference: PubChem BioAssay AID652104 (National Center for Advancing Translational Sciences (NCATS), 2013)
